In publication PMC8081665, “Structural and biochemical mechanisms of NLRP1 inhibition by DPP9” (Nature, 2021):
No constants are given. Whether binding was seen depends on the method and setting. For part of these data: Binding seen in cells or lysates may run through a third protein. Some binding calls cover weakened binding; strength is not graded here. For part of these data: Where a sequence is shown, tags or fusion partners need not be part of it. Blank lines part the entries; values can stand above or below the molecule they belong to.

The chains behind the UniProt entries cited, without tags or fusion partners. Where a name states a change or a piece, a line headed by the entry shows the natural chain unless it says otherwise. A line that says so, or that is headed by a name, gives the form on record, which may keep a tag or linker.
UniProt Q86TI2: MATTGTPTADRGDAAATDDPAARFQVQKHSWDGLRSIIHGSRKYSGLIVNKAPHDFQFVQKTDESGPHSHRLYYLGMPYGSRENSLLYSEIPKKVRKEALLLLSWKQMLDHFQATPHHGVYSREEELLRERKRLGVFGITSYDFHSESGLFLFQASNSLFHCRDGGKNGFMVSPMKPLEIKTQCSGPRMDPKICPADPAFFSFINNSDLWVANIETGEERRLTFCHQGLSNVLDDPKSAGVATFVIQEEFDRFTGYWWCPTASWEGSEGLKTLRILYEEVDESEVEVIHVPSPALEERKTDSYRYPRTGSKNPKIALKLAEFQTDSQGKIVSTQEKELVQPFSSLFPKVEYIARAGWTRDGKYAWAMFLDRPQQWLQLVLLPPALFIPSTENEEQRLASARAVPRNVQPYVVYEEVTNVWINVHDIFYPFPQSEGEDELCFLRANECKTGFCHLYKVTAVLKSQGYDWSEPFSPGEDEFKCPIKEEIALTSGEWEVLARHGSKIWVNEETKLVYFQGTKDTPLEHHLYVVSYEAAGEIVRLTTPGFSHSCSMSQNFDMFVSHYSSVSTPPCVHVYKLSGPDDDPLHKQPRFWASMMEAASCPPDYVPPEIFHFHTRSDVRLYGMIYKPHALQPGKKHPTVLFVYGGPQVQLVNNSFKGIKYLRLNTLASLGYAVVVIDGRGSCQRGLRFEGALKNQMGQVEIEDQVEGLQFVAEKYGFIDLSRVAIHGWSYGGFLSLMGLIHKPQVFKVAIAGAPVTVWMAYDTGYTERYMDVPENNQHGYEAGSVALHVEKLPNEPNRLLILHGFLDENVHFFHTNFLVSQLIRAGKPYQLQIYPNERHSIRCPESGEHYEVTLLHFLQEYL
hDPP9(L131E) (non-tagged, recombinant) (Q86TI2-2, form named): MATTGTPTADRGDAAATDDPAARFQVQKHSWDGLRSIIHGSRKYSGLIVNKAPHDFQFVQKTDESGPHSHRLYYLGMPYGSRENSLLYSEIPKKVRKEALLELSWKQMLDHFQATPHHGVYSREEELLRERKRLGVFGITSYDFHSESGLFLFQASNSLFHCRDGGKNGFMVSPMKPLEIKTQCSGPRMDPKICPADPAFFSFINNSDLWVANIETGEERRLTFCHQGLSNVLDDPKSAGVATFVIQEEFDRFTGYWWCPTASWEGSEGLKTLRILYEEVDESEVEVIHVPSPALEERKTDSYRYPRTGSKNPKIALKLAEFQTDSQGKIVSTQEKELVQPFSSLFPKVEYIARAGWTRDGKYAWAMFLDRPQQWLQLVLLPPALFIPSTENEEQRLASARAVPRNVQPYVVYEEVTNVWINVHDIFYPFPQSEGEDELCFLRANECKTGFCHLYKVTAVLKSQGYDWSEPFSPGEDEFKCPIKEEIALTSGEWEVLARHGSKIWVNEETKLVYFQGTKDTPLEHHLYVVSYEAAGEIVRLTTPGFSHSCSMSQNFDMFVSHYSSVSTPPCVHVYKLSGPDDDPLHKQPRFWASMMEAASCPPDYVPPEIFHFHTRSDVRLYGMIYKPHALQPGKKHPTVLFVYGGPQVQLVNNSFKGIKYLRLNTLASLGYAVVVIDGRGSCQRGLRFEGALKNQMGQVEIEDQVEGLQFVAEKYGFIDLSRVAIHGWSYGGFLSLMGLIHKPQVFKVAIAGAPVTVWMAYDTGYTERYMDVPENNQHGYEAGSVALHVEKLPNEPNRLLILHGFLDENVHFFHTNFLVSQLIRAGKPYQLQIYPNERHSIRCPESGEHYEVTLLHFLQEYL
Flag–hDPP9 (wild type) (Q86TI2-2, form named): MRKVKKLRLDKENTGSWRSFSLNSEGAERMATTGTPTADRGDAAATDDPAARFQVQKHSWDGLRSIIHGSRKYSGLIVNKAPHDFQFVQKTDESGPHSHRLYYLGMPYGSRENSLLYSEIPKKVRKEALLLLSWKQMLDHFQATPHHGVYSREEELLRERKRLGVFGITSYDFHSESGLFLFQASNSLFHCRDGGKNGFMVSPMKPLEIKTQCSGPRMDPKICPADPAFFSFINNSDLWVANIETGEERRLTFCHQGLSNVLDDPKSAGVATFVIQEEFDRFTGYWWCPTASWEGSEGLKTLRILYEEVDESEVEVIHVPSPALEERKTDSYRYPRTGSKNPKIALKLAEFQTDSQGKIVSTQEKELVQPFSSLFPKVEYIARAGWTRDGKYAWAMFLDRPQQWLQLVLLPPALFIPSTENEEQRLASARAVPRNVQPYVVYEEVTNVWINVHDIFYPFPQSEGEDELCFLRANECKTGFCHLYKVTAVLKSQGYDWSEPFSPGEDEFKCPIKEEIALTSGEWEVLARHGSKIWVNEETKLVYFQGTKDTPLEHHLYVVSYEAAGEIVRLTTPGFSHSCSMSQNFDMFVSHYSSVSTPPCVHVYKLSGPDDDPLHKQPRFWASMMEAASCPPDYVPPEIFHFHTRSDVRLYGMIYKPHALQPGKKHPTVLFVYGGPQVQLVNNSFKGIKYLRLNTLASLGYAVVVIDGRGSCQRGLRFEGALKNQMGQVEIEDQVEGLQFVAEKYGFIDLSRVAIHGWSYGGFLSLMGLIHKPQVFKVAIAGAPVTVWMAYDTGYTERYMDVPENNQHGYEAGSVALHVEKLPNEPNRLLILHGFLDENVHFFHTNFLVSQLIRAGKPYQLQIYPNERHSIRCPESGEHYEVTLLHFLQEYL
Flag–hDPP9(L131E) (Q86TI2-2, form named): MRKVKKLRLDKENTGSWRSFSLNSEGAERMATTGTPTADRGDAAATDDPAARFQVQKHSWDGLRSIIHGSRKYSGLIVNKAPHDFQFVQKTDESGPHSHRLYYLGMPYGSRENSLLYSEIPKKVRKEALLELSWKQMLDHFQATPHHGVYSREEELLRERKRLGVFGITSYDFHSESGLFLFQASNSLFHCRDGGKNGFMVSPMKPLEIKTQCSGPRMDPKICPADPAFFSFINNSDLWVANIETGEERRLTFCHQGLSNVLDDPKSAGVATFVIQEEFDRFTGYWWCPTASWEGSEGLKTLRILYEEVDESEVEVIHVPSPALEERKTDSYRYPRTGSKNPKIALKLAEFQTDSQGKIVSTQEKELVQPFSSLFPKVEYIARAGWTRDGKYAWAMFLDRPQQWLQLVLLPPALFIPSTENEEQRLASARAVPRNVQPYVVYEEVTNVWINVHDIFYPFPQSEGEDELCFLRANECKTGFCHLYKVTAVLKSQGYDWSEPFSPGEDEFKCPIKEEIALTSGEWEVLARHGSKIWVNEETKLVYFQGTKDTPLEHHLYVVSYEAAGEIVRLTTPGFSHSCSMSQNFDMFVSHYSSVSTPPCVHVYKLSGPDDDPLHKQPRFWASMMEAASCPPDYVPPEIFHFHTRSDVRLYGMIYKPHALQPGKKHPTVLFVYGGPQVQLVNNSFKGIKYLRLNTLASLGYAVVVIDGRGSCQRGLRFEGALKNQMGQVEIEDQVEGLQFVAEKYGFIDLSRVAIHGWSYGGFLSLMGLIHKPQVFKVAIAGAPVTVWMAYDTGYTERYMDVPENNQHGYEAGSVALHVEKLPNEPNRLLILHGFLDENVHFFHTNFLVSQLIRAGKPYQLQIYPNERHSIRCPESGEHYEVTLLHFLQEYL
UniProt Q9Y2G2: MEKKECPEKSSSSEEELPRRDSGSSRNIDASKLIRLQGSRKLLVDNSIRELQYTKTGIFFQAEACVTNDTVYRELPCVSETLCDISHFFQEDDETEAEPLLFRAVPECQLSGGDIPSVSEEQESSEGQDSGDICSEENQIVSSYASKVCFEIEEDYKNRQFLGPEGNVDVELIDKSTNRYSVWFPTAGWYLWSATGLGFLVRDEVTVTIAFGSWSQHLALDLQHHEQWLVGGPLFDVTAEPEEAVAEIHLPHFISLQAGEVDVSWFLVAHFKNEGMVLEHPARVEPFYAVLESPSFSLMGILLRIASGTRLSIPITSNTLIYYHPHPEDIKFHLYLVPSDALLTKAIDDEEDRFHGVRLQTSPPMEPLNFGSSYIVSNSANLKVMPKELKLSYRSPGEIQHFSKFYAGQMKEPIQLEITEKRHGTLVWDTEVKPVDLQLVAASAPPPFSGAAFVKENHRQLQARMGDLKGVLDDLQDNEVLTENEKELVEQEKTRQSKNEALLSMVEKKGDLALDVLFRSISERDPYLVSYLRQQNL

Assays:
[1] = target: hDPP9 (non-tagged, recombinant) (human) (UniProt Q86TI2); experiment: SEC; the two proteins co-expressed in insect cells, complex purified on GS4B resin, GST removed with PreScission protease, then gel filtration; fractions on SDS–PAGE with Coomassie staining; both purified
[2] = target: full-length GST–CARD8 (human) (UniProt Q9Y2G2); experiment: pull-down; GST fusion held on GS4B resin, incubated with an excess of purified DPP9 on ice for 60 min, washed five times with 10 mM Tris pH 8.0, 100 mM NaCl, eluted with GSH; SDS–PAGE with Coomassie staining; also with or without VbP; both purified
[3] = target: Flag–hDPP9 (wild type) (human) (UniProt Q86TI2); experiment: co-IP; lysates of transfected 293T cells collected 48 h post transfection, anti-Flag immunoprecipitation, immunoblot
[4] = target: Flag–hDPP9(L131E) (human) (UniProt Q86TI2); experiment: as above
[5] = target: rNLRP1 FIIND (residues 822-1122), autoprocessed (rat) (UniProt D9I2G3); experiment: SEC; purified rNLRP1 FIIND alone; gel-filtration profile and SDS–PAGE; both purified

- binding [1]: binds
Molecule: full-length CARD8 (GST removed) (from UniProt Q9Y2G2 1-537)

- binding [2]: binds
Molecule: hDPP9 (non-tagged, recombinant) (from UniProt Q86TI2-2 30-892) (enzyme)

- binding [2]: no binding
Molecule: hDPP9(L131E) (non-tagged, recombinant) (from UniProt Q86TI2-2 30-892) (enzyme)

- binding [3]: binds
- binding [4]: no binding
B1: HA-tagged hNLRP1 (protein, UniProt Q9C000 1-1473)
chain: MAGGAWGRLACYLEFLKKEELKEFQLLLANKAHSRSSSGETPAQPEKTSGMEVASYLVAQYGEQRAWDLALHTWEQMGLRSLCAQAQEGAGHSPSFPYSPSEPHLGSPSQPTSTAVLMPWIHELPAGCTQGSERRVLRQLPDTSGRRWREISASLLYQALPSSPDHESPSQESPNAPTSTAVLGSWGSPPQPSLAPREQEAPGTQWPLDETSGIYYTEIREREREKSEKGRPPWAAVVGTPPQAHTSLQPHHHPWEPSVRESLCSTWPWKNEDFNQKFTQLLLLQRPHPRSQDPLVKRSWPDYVEENRGHLIEIRDLFGPGLDTQEPRIVILQGAAGIGKSTLARQVKEAWGRGQLYGDRFQHVFYFSCRELAQSKVVSLAELIGKDGTATPAPIRQILSRPERLLFILDGVDEPGWVLQEPSSELCLHWSQPQPADALLGSLLGKTILPEASFLITARTTALQNLIPSLEQARWVEVLGFSESSRKEYFYRYFTDERQAIRAFRLVKSNKELWALCLVPWVSWLACTCLMQQMKRKEKLTLTSKTTTTLCLHYLAQALQAQPLGPQLRDLCSLAAEGIWQKKTLFSPDDLRKHGLDGAIISTFLKMGILQEHPIPLSYSFIHLCFQEFFAAMSYVLEDEKGRGKHSNCIIDLEKTLEAYGIHGLFGASTTRFLLGLLSDEGEREMENIFHCRLSQGRNLMQWVPSLQLLLQPHSLESLHCLYETRNKTFLTQVMAHFEEMGMCVETDMELLVCTFCIKFSRHVKKLQLIEGRQHRSTWSPTMVVLFRWVPVTDAYWQILFSVLKVTRNLKELDLSGNSLSHSAVKSLCKTLRRPRCLLETLRLAGCGLTAEDCKDLAFGLRANQTLTELDLSFNVLTDAGAKHLCQRLRQPSCKLQRLQLVSCGLTSDCCQDLASVLSASPSLKELDLQQNNLDDVGVRLLCEGLRHPACKLIRLGLDQTTLSDEMRQELRALEQEKPQLLIFSRRKPSVMTPTEGLDTGEMSNSTSSLKRQRLGSERAASHVAQANLKLLDVSKIFPIAEIAEESSPEVVPVELLCVPSPASQGDLHTKPLGTDDDFWGPTGPVATEVVDKEKNLYRVHFPVAGSYRWPNTGLCFVMREAVTVEIEFCVWDQFLGEINPQHSWMVAGPLLDIKAEPGAVEAVHLPHFVALQGGHVDTSLFQMAHFKEEGMLLEKPARVELHHIVLENPSFSPLGVLLKMIHNALRFIPVTSVVLLYHRVHPEEVTFHLYLIPSDCSIRKAIDDLEMKFQFVRIHKPPPLTPLYMGCRYTVSGSGSGMLEILPKELELCYRSPGEDQLFSEFYVGHLGSGIRLQVKDKKDETLVWEALVKPGDLMPATTLIPPARIAVPSPLDAPQLLHFVDQYREQLIARVTSVEVVLDKLHGQVLSQEQYERVLAENTRPSQMRKLFSLSQSWDRKCKDGLYQALKETHPHLIMELWEKGSKKGLLPLSS

- binding [5]: no binding
B2: rNLRP1 FIIND (residues 822-1122), autoprocessed (domain or fragment, UniProt D9I2G3 822-968; D9I2G3 969-1122)
chain 1: GDKHMEPLGTDDDFWGPSGPVSTEVVDRERNLYRVRLPMAGSYHCPSTGLHFVVTRAVTIEIGFCAWSQFLHETPLQHSHMVAGPLFDIKAEHGAVTAVCLPHFVSLQEGKVDSSLFHVAHFQDHGMVLETPARVEPHFAVLENPSF
chain 2: SPMGVLLRMIPAVGHFIPITSITLIYYRLYLEDITFHLYLVPNDCTIRKAIDEEELKFQFVRINKPPPVDALYVGSRYIVSSSKEVEILPKELELCYRSPRESQLFSEIYVGNIGSGINLQLTDKKYMNLIWEALLKPGDLRPALPRMASAPKD
